Test results taken from PubChem BioAssay AID1461 (National Center for Advancing Translational Sciences (NCATS), 2008).
Out of some 220,000 compounds screened, about 2,300 (1%) were called active. The shares of active, inactive and inconclusive entries below differ from those in the screen. Calls come from the whole dose curve; as a rule, active = well fitted inhibition curve with a large enough effect; inconclusive = small, poorly fitted or top-dose-only effect, or effect the other way; inactive = no such curve, though single readings can be large or run the other way. A potency beside an inconclusive call is a rough fit, not a confirmed value.
% is set by controls: 0 for no effect and ±100 for the full control effect; potency is the fitted concentration of half-maximal effect; tags give direction and shape of the fitted curve.
Note: nearly all actives have a fitted effect of over 50% in size.

What follows are compounds tested against Neuropeptide S receptor (Homo sapiens) (UniProt Q6W5P4) (assay: qHTS Assay for Antagonists of the Neuropeptide S Receptor: cAMP Signal Transduction). Conditions: CHO-NPSR cells, cAMP TR-FRET, antagonist mode; activity change, negative = inhibition: at 38.3 µM (top of the series) unless noted.
Sequence of UniProt Q6W5P4 (Q6W5P4 whole entry, looked up): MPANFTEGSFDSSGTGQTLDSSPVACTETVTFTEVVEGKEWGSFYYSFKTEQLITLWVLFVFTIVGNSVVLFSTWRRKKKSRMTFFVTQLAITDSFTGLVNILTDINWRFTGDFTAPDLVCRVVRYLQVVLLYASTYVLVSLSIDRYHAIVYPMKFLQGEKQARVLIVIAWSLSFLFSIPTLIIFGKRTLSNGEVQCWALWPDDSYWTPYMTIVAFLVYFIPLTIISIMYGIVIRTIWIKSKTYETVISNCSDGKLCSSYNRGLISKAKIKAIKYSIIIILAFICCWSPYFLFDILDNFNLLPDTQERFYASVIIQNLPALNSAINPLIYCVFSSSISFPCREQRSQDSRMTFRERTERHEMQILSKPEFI
In the case of S=C1SCN(Cc2ccco2)CN1Cc1ccco1, the Potency is reported as inconclusive: 3.98 µM [activator, full curve].
With COc1ccc(NC2c3ccccc3C(=O)N2Cc2ccccc2Cl)cc1OC (stereo unspecified) the Potency was inconclusive: 25.1 µM [inhibitor, single point].
In the case of C=CCNC(=S)Nc1cc(C)ccn1, the “activity change, negative = inhibition” value is reported as inactive: -14%.
With Cc1sc2nc(CN(C(=O)c3cccs3)C3CCCC3)[nH]c(=O)c2c1C the Potency was inconclusive: 12.6 µM [inhibitor, partial curve].
For COc1ccc(C(=O)c2ccc([N+](=O)[O-])cc2Cl)cc1, the Potency was inconclusive: 12.6 µM [inhibitor, single point].
O=C(CSc1n[nH]c(-c2ccccc2O)n1)N1CCCc2ccccc21 was tested, and the “activity change, negative = inhibition” value was inactive: -9.35% [at 46.1 µM].
CCOc1ccc2[nH]c(=O)c(CN(Cc3ccc(F)cc3)C(=O)N3CCCC3)cc2c1 was tested, and the Potency was inconclusive: 1.26 µM [inhibitor, full curve, poor fit].
CC(C)(C)OC(=O)N/N=C/c1cccn1-c1ccc([N+](=O)[O-])cc1 was tested, and the “activity change, negative = inhibition” value was inactive: 16.8%.
In the case of COc1c(OC(C)=O)ccc(/C=N\NC(=O)c2ccc(Br)cc2)c1[N+](=O)[O-], the “activity change, negative = inhibition” value is reported as inactive: 11.5%.
With Cn1c(C(=O)NCCc2ccsc2)cc2c(=O)n(C)c3ccccc3c21 the activity change, negative = inhibition was inconclusive: -30.1% [inhibitor] [at 46.1 µM].
With COc1ccc(NCC(=O)N/N=C/C=C\c2ccccc2)cc1 the “activity change, negative = inhibition” value was inactive: -13.4%.
With O=C(CNC(=O)c1ccccc1F)N/N=C/c1cc(Br)ccc1OC(=O)/C=C/c1ccco1 the “activity change, negative = inhibition” value was inactive: -30.9%.
In the case of CCC(C)N(C)C(=O)c1cc2ccccc2c(-c2ccccc2Cl)n1 (stereo unspecified), the Potency is reported as inconclusive: 0.199 µM [inhibitor, full curve, poor fit].
Cc1ccc(C)c(NC(=O)CSc2nc(C)cc(C)c2C#N)c1 was tested, and the Potency was inconclusive: 12.6 µM [inhibitor, single point].
With CCCn1c(=NC(=O)c2c(-c3c(F)cccc3Cl)noc2C)c(C(=O)OCC)cc2c(=O)n3ccccc3nc21 the Potency was inconclusive: 2 µM [inhibitor, full curve, poor fit].
With COc1cc2c(cc1OC)C(=S)NC1(CCCC1)C2 the “activity change, negative = inhibition” value was inactive: -27.8%.
With C=CCn1c(Sc2ncc([N+](=O)[O-])s2)n[nH]c1=O the Potency was inconclusive: 12.6 µM [activator, single point].
With C=CCn1c(N)c(C(=O)Nc2cccc(C)c2)c2nc3ccccc3nc21 the Potency was inconclusive: 6.31 µM [inhibitor, partial curve, poor fit].
In the case of Cc1cc(NS(=O)(=O)c2ccc(Nc3nc(-c4ccc(O)cc4)cs3)cc2)no1, the “activity change, negative = inhibition” value is reported as inactive: -5.13%.
For CC(Oc1ccc(Cl)cc1Cl)C(=O)NCCN1CCOCC1 (stereo unspecified), the Potency was inconclusive: 20 µM [inhibitor, single point].
In the case of CC(C)NS(=O)(=O)c1ccc(CCC(=O)Nc2cc(Cl)ccc2Oc2ccccc2)cc1, the Potency is reported as inconclusive: 10 µM [inhibitor, single point].
In the case of CC(C)CN(CC(C)C)CC(O)CN(c1ccccc1)S(=O)(=O)c1ccccc1[N+](=O)[O-] (stereo unspecified), the Potency is reported as inconclusive: 12.6 µM [inhibitor, single point].
With Cc1cccc(C)c1-n1c(SCC(=O)N2CC(=O)Nc3ccccc32)nc2ccccc2c1=O the Potency was inconclusive: 10 µM [inhibitor, single point].
For COc1ccc([N+](=O)[O-])c(S(=O)(=O)c2ccccc2)n1, the Potency was inconclusive: 15.8 µM [activator, single point].
For COc1ccc(-c2c([C@H]3[C@H]4C=CC[C@@H](C)[C@@H]4C(=O)N3Cc3ccccc3)ccc3ccccc23)cc1OC, the Potency was active: 6.31 µM.
In the case of O=C(COC(=O)C1=COCCO1)NCc1ccc(Cl)cc1, the “activity change, negative = inhibition” value is reported as inactive: 2.77%.
In the case of CC(C)OCCCN1C(=O)c2[nH]nc(-c3ccccc3O)c2C1c1cccc(Cl)c1 (stereo unspecified), the Potency is reported as inconclusive: 31.6 µM [inhibitor, single point].
In the case of Cc1ccc(-c2c(C#N)c(N)nc3c2CCCC3)o1, the “activity change, negative = inhibition” value is reported as inactive: -26.6%.
In the case of CC(C)c1nnc(NC(=O)CSc2nc3ccccc3s2)s1, the “activity change, negative = inhibition” value is reported as inactive: -15% [at 46.1 µM].
Cc1nnc2ccc(Oc3ccc(-c4ccccc4)cc3)nn12 was tested, and the Potency was inconclusive: 12.6 µM [inhibitor, partial curve].
With Cc1ccc(C(=O)Cn2nnc(-c3ccccc3-n3cnnn3)n2)cc1 the “activity change, negative = inhibition” value was inactive: -3.45% [at 46.1 µM].
With COc1ccc(-c2cccc([C@H]3[C@@H]4C=CCC[C@@]4(C)C(=O)N3Cc3ccccc3)c2)cc1 the Potency was inconclusive: 10 µM [inhibitor, single point].
N#CC(C#N)=c1ccc2c(c1)NC1(CCCCC1)N=2 was tested, and the Potency was active: 10 µM.
CCOc1ccccc1C(=O)N1CCN=C1SC was tested, and the “activity change, negative = inhibition” value was inactive: -15.4% [at 46.1 µM].
For C/C(CCc1ccc2c(c1)OCO2)=N\NC(=S)NC(C)C, the “activity change, negative = inhibition” value was inactive: -49.4%.
For Cc1ccc(OCc2ccc(C#N)cc2)c(C(=O)c2cc(C#N)c(=O)n(C3CC3)c2)c1, the Potency was inconclusive: 2 µM [inhibitor, single point].
With CC(C)(C)C(=O)Nc1sc(-c2ccccc2)cc1C(=O)O the Potency was active: 12.6 µM.
With COc1ccccc1/C(C)=N/NC(=S)NCc1ccccc1 the Potency was inconclusive: 25.1 µM [inhibitor, single point].
In the case of COc1ccc(-c2cc(C(=O)N3CC4(C)CC3CC(C)(C)C4)no2)cc1OC (stereo unspecified), the Potency is reported as inconclusive: 10 µM [inhibitor, single point].
CCN(CC)S(=O)(=O)c1ccc(S(=O)(=O)Nc2ccc3c(c2)oc2ccccc23)cc1 was tested, and the Potency was inconclusive: 12.6 µM [inhibitor, single point].
CN1C(=S)SC(C)(NO)C1(C)C (stereo unspecified) was tested, and the “activity change, negative = inhibition” value was inactive: 2.83% [at 46.1 µM].
In the case of CCOC(=O)c1nc(C)sc1-c1ccnn1S(=O)(=O)c1ccccc1C(F)(F)F, the Potency is reported as inconclusive: 10 µM [activator, partial curve].
With CCc1nc2n(n1)C(O)c1cc([N+](=O)[O-])ccc1S2 (stereo unspecified) the Potency was inconclusive: 12.6 µM [activator, single point].
In the case of Cc1ccc(NC(=S)N(CCN2CCOCC2)Cc2ccccc2F)cc1Cl, the Potency is reported as inconclusive: 12.6 µM [inhibitor, single point].
For CC(=O)Nc1ccc(S(=O)(=O)/N=C2\C(=O)c3ccccc3C([O-])=C2n2cc[n+](-c3ccccn3)c2)cc1, the “activity change, negative = inhibition” value was inactive: 15%.
For N#Cc1cc2c(nc1SCc1ccccc1)CCCCC2, the Potency was inconclusive: 10 µM [inhibitor, single point].
In the case of CC(=O)N1CCC(N(CCN2CCOCC2)C(=S)Nc2cc(C)cc(C)c2)CC1, the “activity change, negative = inhibition” value is reported as inactive: -1.85%.
CCn1c(N)c(C(=O)NCCCOC)sc1=S was tested, and the “activity change, negative = inhibition” value was inactive: -20.9% [at 46.1 µM].
For COc1cc(C(=O)Nc2nc(-c3cc(C)ccc3C)c(C)s2)ccc1OCC(=O)Nc1ccc(F)cc1, the Potency was inconclusive: 10 µM [activator, partial curve].
For O=C(CCN1C(=O)c2ccccc2C1=O)Nc1sc2c(c1C(=O)NCc1ccco1)CCCC2, the “activity change, negative = inhibition” value was inactive: -29.9% [at 46.1 µM].
With CCOC(=O)C(C)(C)N(Cc1cccc(C)c1)S(=O)(=O)c1ccc(Cl)c([N+](=O)[O-])c1 the Potency was inconclusive: 10 µM [inhibitor, partial curve].
In the case of O=C(Nc1ccc2oc(-c3ccccc3Cl)nc2c1)c1cncc(Br)c1, the Potency is reported as inconclusive: 25.1 µM [inhibitor, single point].
In the case of Cc1cc(/C=C(/C#N)c2cccc(Cl)c2)c(C)n1C, the Potency is reported as inconclusive: 10 µM [inhibitor, single point].
With Cc1cc(C)n(-c2nc(NCCO)c3c4c(sc3n2)CCCC4)n1 the “activity change, negative = inhibition” value was inactive: 0.0597% [at 46.1 µM].
With Cc1nc2nc(C)c(CCC(=O)NCCCN3CCN(c4cccc(Cl)c4)CC3)c(C)n2n1 the Potency was inconclusive: 15.8 µM [inhibitor, single point].
With COc1cccc(Nc2ncnc3c2cnn3-c2cccc(C)c2)c1 the Potency was inconclusive: 12.6 µM [inhibitor, single point].
In the case of CC(/C=N/O)Cc1ccc2c(c1)OCO2 (stereo unspecified), the Potency is reported as inconclusive: 0.794 µM [inhibitor, full curve, poor fit].
For COc1cccc(C(=O)Nc2nnc(-c3cccs3)s2)c1, the Potency was inconclusive: 10 µM [inhibitor, single point].
With N#Cc1cc2c(nc1SCC(=O)Nc1sc3c(c1C#N)CCC3)CCCCC2 the Potency was inconclusive: 12.6 µM [inhibitor, single point].
For CCc1ccc(OCc2nc(-c3ccccn3)no2)c(Br)c1, the “activity change, negative = inhibition” value was inactive: -0.864% [at 46.1 µM].
With O=C(CSc1nnc(Cc2cccs2)n1C1CCCCC1)N1CCCc2ccccc21 the Potency was inconclusive: 15.8 µM [inhibitor, single point].
For O=C(Nc1cccc(NC(=O)c2ccc(-c3ccc(Br)cc3)o2)c1)c1ccco1, the Potency was inconclusive: 7.94 µM [inhibitor, single point].
For COc1cc(C(=O)NC(=S)NCc2ccco2)cc(OC)c1OC, the Potency was inconclusive: 12.6 µM [inhibitor, single point].
For CCN(CC)C(=O)CN1C(=O)C(=O)c2ccccc21, the “activity change, negative = inhibition” value was inactive: -17.4%.
In the case of COC(=O)/C=C1/SC(=NC(=O)c2ccc(F)cc2)NC1=O, the Potency is reported as inconclusive: 10 µM [activator, partial curve].
In the case of CCCCn1c(-c2ccsc2)nc2c1c(=O)[nH]c(=O)n2CCC, the Potency is reported as inconclusive: 25.1 µM [inhibitor, single point].
In the case of CCNC(=S)N/N=C(\C)c1cccc([N+](=O)[O-])c1, the “activity change, negative = inhibition” value is reported as inactive: -12%.
With O=C(CSc1ncnc2sc3c(c12)CCCC3)c1ccco1 the “activity change, negative = inhibition” value was inactive: -25.5% [at 46.1 µM].
With CCCc1cc(C(=O)N2CCN(C(c3ccccc3)c3ccccc3)CC2)no1 the Potency was inconclusive: 7.94 µM [inhibitor, partial curve, poor fit].
COc1ccccc1-c1c(C)nn2c(N3CCC(C)CC3)cc(C)nc12 was tested, and the Potency was inconclusive: 10 µM [inhibitor, single point].
In the case of Cc1ccc(C(=O)c2ccccc2C(=O)OCC(=O)NCCc2ccc(Cl)cc2Cl)cc1, the Potency is reported as inconclusive: 12.6 µM [inhibitor, single point].
